Results: PubChem BioAssay (NCATS)
This list was built around the results that the source calls inconclusive (neither active nor inactive); the mix of calls is not that of the screen. For some assays here: A potency beside an inconclusive call is a rough fit, not a confirmed value. Active and inactive are the calls of the source. Calls follow the shape of the dose curve; as a rule, active = well fitted curve in the direction sought with a large enough effect; inconclusive = small, poorly fitted or top-dose-only effect, or another doubt; inactive = no such curve, though single readings can be large; an effect the other way counts as inactive or inconclusive.

Legend:
[1] = HPAF-II Cancer Cell Toxicity qHTS against the NCATS CANVASS Library (AID 1347346); also: potency is read from the fitted curve at half-maximal effect; nearly all actives have a fitted effect of over 55% in size
In short: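 Luminescence from CellTiter-Glo, added after 72 h compound exposure and a 15 min room-temperature incubation, served as the viability readout. HPAF-II cells (1000/well) received an 11-point concentration series.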

[2] = COV-362 Cancer Cell Toxicity qHTS against the NCATS CANVASS Library (AID 1347352); also: potency is read from the fitted curve at half-maximal effect
In short: (§1)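 Luminescent ATP read-out (CellTiter-Glo, 15min at room temperature) measures survival after cells face an 11-point compound series for 72 hours at 37 degrees C/5% CO2.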

[3] = A2780 Cisplatin Sensitive Ovarian Cancer Cell Toxicity qHTS against the NCATS CANVASS Library (AID 1347353); also: potency is read from the fitted curve at half-maximal effect; nearly all actives have a fitted effect of over 60% in size
In short: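 Luminescent ATP content (ATPLite, 10 min at room temperature) served as the read-out after cells had been exposed to compounds for 72 hours at 37 °C. Dosing followed an 11-point concentration series.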

[4] = UWB1.289-WTBRCA1 Cancer Cell Toxicity qHTS against the NCATS CANVASS Library (AID 1347354)
In short: as §1

[5] = KB-8-5-11 Cancer Cell Toxicity qHTS against the NCATS CANVASS Library (AID 1347364); conditions: activity change, negative = toxicity: at 46.1 µM (top of the series); also: nearly all actives have a fitted effect of over 75% in size; also: potency is read from the fitted curve at half-maximal effect
In short: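 Plate 500 KB-8-5-11 cells per well in DMEM + 10% FBS, add compounds by pin transfer, incubate 72 hr at 37C. Add CellTiter-Glo, wait 10 minutes at room temperature, read luminescence.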

[6] = SDT Cancer Cell Toxicity qHTS against the NCATS CANVASS Library (AID 1347365); also: potency is read from the fitted curve at half-maximal effect; nearly all actives have a fitted effect of over 60% in size
In short: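 qHTS, SDT dog glioma line, 500 cells/well; cpds 11 pts; 72 hr, 37C, 5% CO2; CellTiterGlo ATP luminescence.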

[7] = qHTS for Antimalaria activity screened against the NCATS CANVASS Library (AID 1347380); also: nearly all actives have a fitted effect of over 40% in size; also: potency is read from the fitted curve at half-maximal effect;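 as to activity change, negative = inhibition: Plasmodium falciparum strain Dd2 asexual parasites grown in red blood cells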
In short: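 Dd2 strain, infected erythrocytes 2.5% Hct final / 0.3% parasitemia. 11-pt qHTS titration, 72 h, 37C, 5% O2, 5% CO2. Lysis buffer + SYBR Green, 18 h, fluorescence 485/535 nm.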

[8] = Secretion counterscreen for inhibitors of the SERCaMP assay screened against the NCATS CANVASS Library (AID 1347390); conditions: SH-SY5Y constitutive GLuc secretion, luminescence, 20 h; activity change, negative = inhibition: at 76.6 µM (top of the series);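 also: light from luciferase secreted into medium read as a measure of general secretion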
In short: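 Counterscreen identifying compounds that disrupt secretion, using SH-SY5Y cells with a constitutively secreted Gaussia luciferase reporter. A 20 h compound exposure (top 77 uM) precedes luminescent detection with coelenterazine.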

[9] = qHTS for activators of Nrf2/ARE signaling pathway screened against the NCATS CANVASS Library (AID 1347391); also: potency is read from the fitted curve at half-maximal effect; nearly all actives have a fitted effect of over 60% in size
In short: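 Plate ARE-bla HepG2 cells at 2000/well and let them settle 5 h. Pin-transfer compounds in DMSO, incubate 16 h at 37C. Load CCF4 for 2 h at room temperature and read blue/green fluorescence.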

[10] = qHTS for inhibitors of ER calcium dysfunction: SERCaMP assay screened against the NCATS CANVASS Library (AID 1347393); conditions: SH-SY5Y GLuc-SERCaMP secretion, thapsigargin, luminescence; activity change, negative = inhibition: at 76.6 µM (top of the series) unless noted; also: potency is read from the fitted curve at half-maximal effect; nearly all actives have a fitted effect of over 40% in size
In short: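 SH-SY5Y GLuc-SERCaMP, 1000 cells/well, 4 h attach; cpd 16 h, 37C/5% CO2; thapsigargin (added as 6x 600 nM) 4 h; coelenterazine; luminescence. Reduced reporter release = ER Ca stabilization.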

[11] = UWB1.289 Cancer Cell Toxicity qHTS against the NCATS CANVASS Library (AID 1347347); also: potency is read from the fitted curve at half-maximal effect; nearly all actives have a fitted effect of over 60% in size
In short: (§2)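 Toxicity is measured over 72 h of compound exposure at 37 degrees C under 5% CO2. Each well holds 1000 cells, pre-incubated for 4 hours before dosing across an 11-point range. CellTiter-Glo luminescence gives viability.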

[12] = Panc-1005 Cancer Cell Toxicity qHTS against the NCATS CANVASS Library (AID 1347349)
In short: as §2

[13] = HEK-293 Cancer Cell Toxicity qHTS against the NCATS CANVASS Library (AID 1347355); also: potency is read from the fitted curve at half-maximal effect; nearly all actives have a fitted effect of over 65% in size
In short: as §1

[14] = KB-3-1 Cancer Cell Toxicity qHTS against the NCATS CANVASS Library (AID 1347366); also: potency is read from the fitted curve at half-maximal effect; nearly all actives have a fitted effect of over 75% in size
In short: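 Seed KB-3-1 cells at 500/well in DMEM with 10% FBS, add compounds, incubate 72 hr at 37C and 5% CO2, then add CellTiter-Glo and read luminescence after 10 minutes.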

[15] = qHTS for ATAD5 Antagonist screened against the NCATS CANVASS Library (AID 1347370); also: potency is read from the fitted curve at half-maximal effect; nearly all actives have a fitted effect of over 65% in size
In short: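 HEK293T cells with stably integrated ATAD5-luciferase reporter, 2000/well, 5 h attachment; compounds plus 10 µM 5-fluorouridine, 16 h at 37 °C. Luciferase luminescence read, with CellTiter-Fluor viability read first.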

[16] = biological target: Nuclear receptor subfamily 1 group I member 3 (Homo sapiens) (UniProt Q14994); assay: qHTS for Constitutive Androstane Receptor (CAR) Agonist screened against the NCATS CANVASS Library (AID 1347373);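 also: every well also contained 1.5 µM PK11195 alongside the test compound; potency is read from the fitted curve at half-maximal effect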
Chain of UniProt Q14994 (Q14994 whole entry, looked up): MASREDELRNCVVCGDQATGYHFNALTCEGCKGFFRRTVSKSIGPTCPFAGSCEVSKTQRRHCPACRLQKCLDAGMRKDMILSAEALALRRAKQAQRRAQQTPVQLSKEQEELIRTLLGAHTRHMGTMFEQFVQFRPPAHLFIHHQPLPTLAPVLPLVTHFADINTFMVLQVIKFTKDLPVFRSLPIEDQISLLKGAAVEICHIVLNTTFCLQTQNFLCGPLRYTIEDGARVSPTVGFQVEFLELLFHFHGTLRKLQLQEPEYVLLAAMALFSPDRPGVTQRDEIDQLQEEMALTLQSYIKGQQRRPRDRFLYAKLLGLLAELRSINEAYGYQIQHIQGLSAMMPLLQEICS
In short: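 HepG2-hCAR-CYP2B6 cells, 2500/well, attached 4hr; cpd + PK11195 1.5uM final; 24hr 37C 5% CO2. CellTiter-Fluor viability read, then ONE-Glo luminescence for CAR activation.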

[17] = qHTS for Hypoxia signaling pathway (HIF-1) antagonists against the NCATS CANVASS Library (AID 1347374)
In short: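 HRE-bla ME-180 cells in medium with 0.5% dialyzed FBS received compounds (11-point series) plus CoCl2 (60 uM addition stock) for 17 hrs at 37C. Beta-lactamase activity read with CCF4 (405 nm ex, 460/530 nm em); CellTiter-Glo viability measured in same wells.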

[18] = qHTS for Inflammasome Signaling Inhibitors: IL-1-beta AlphaLISA screen against the NCATS CANVASS Library (AID 1347379);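 also: human THP-1 cells primed with LPS then triggered with ATP; secreted IL-1B measured as AlphaLISA emission at 615 nm; potency is read from the fitted curve at half-maximal effect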
In short: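 THP-1 cells pretreated 1 hr with compound (up to 57.5 uM final), then stimulated with LPS (250 ng/mL final) and ATP (1.25 mM final). Secreted IL-1B measured by AlphaLISA after 16 hr; glyburide as positive control.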

[19] = Viability qHTS for inhibitors of the SERCaMP assay screened against the NCATS CANVASS Library (AID 1347400); also: potency is read from the fitted curve at half-maximal effect; nearly all actives have a fitted effect of over 70% in size
In short: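 SH-SY5Y SERCaMP MJH297 cells, 1000/well; 4 h settle, 37C/5% CO2; pin-transferred cpds; 48 h; CellTiter-Glo lum. Pos ctrl bortezomib 0.0001 - 4.6 uM.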

[20] = Redox Reaction Profiling qHTS: Assay Interference Panel against the NCATS CANVASS Library (AID 1347401); also: potency is read from the fitted curve at half-maximal effect
In short: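 Compounds in 11-point series incubated with 5 uM resazurin and 200 uM DTT in 50 mM HEPES pH 7.3, 50 mM NaCl. Resorufin fluorescence (Ex 525/Em 598) read before and after 15 min in the dark.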
Tags tell the direction and shape of the fitted curve.

| SMILES | Potency [1] | Potency [2] | Potency [3] | Potency [4] | Potency [5] | Potency [6] | Potency [7] | Potency [8] | Potency [9] | Potency [10] | Potency [11] | Potency [12] | Potency [13] | Potency [14] | Potency [15] | Potency [16] | Potency [17] | Potency [18] | Potency [19] | Potency [20] |
| --- | --- | --- | --- | --- | --- | --- | --- | --- | --- | --- | --- | --- | --- | --- | --- | --- | --- | --- | --- | --- |
| CO[C@H]1[C@@H](OC(=O)/C(C)=C\[C@@H]2O[C@@H]2[C@H]2O[C@H]2C)[C@H](O)[C@H](OCC23C[C@@H]4[C@H](C)CC[C@H]4C4(C=O)CC2C=C(C(C)C)C34C(=O)O)O[C@@H]1C (some centres undefined) | inconclusive: 9.43 µM [cytotoxic, single point] | inactive | inconclusive: 11.8 µM [cytotoxic, full curve] | inactive | inactive | inconclusive: 29.6 µM [cytotoxic, single point] | inconclusive: 0.0047 µM [cytotoxic, full curve, poor fit] | inactive | active: 16.6 µM | inconclusive: 43.1 µM [inhibitor, single point] |  |  |  |  |  |  |  |  |  |  |
| C=C[C@@]1(C)CC[C@@H]([C@H](C)C(=O)/C=C/C(C)(C)O)O1 | inconclusive: 18.8 µM [cytotoxic, single point] | inconclusive: 21.1 µM [cytotoxic, single point] | inconclusive: 33.2 µM [cytotoxic, single point] |  | inconclusive: 37.2 µM [cytotoxic, single point] | inconclusive: 29.6 µM [cytotoxic, single point] | inactive | inactive | active: 13.2 µM | inconclusive: 9.65 µM [inhibitor, partial curve] | inconclusive: 18.8 µM [cytotoxic, single point] | inconclusive: 18.8 µM [cytotoxic, single point] | active: 26.4 µM | inconclusive: 29.6 µM [cytotoxic, single point] | inconclusive: 23.4 µM [inhibitor, partial curve] | inconclusive: 23.4 µM [activator, single point] | inconclusive: 18.8 µM [inhibitor, single point] | inconclusive: 27.3 µM [inhibitor, single point] | inconclusive: 42.8 µM [cytotoxic, partial curve] | inconclusive: 0.961 µM [activator, full curve, poor fit] |
